Hit rate of the full screen: of about 310,000 compounds, about 14,000 (4.5%) showed an effect of 50% or more. The effect is printed as a negative number. Some of the results follow.
Each molecule was assayed against human ether-à-go-go-related gene (hERG) potassium channel (human, UniProt Q12809) (assay: primary screen, population patch clamp on CHO cells stably expressing hERG).
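Note: peak tail current of the secondary pulse compared with the same well before compound.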

human ether-à-go-go-related gene (hERG) potassium channel, sequence (Q12809 whole entry, looked up): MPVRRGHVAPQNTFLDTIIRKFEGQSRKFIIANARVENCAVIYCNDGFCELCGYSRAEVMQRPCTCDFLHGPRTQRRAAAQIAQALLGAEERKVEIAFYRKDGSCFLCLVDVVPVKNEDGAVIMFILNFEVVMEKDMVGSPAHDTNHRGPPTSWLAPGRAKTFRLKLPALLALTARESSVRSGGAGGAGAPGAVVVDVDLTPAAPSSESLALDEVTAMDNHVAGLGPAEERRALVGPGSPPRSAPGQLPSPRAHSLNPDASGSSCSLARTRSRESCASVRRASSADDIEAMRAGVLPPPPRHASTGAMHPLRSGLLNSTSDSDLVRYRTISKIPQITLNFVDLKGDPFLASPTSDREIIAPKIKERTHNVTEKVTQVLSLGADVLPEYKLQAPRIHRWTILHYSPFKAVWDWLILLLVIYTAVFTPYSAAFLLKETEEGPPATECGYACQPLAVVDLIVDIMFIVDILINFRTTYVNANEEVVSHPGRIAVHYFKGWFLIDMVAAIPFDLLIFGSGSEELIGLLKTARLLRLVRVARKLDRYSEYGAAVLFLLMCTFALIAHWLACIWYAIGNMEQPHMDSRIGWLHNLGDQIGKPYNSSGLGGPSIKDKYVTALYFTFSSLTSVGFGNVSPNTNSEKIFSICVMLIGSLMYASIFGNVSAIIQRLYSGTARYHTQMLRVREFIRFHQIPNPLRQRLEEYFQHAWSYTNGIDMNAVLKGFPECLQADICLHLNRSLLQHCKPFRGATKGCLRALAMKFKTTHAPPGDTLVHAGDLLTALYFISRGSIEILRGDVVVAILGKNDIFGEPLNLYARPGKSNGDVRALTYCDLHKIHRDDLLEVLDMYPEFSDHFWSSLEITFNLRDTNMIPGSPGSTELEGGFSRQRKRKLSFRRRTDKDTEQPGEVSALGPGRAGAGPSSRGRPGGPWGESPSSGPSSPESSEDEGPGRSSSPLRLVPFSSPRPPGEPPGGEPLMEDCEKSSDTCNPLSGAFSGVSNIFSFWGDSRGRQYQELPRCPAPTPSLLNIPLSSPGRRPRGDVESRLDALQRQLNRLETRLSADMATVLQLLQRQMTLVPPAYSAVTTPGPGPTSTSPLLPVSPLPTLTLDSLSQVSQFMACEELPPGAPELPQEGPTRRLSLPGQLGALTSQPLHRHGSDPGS

SMILES | hERG current change (%, negative = inhibition) at 10uM
CCOC(=O)c1c(C)[nH]c(C2=NNC(=Nc3cccc(Cl)c3)SC2)c1C | 0.47%
O=C(NCC(c1cccs1)N1CCOCC1)c1ccc(Cl)nc1 (centres unmarked) | -8.03%
CC(C)(C)[C@@H]1C=C(C(=O)N2CCN(Cc3ccc4c(c3)OCO4)CC2)O[C@H](OCc2ccc(CO)cc2)C1 | -35%
O=C(CN1C(=O)C2C3C=CC(C3)C2C1=O)N1CC=C(c2ccccc2)CC1 (centres unmarked) | -10.1%
CCCS(=O)(=O)N1CCC(Cc2ccc(OC)cc2)(C(=O)OCC)CC1 | -0.00512%
COc1ccc(NC(=O)Cn2c(=O)n(-c3ccccc3)c(=O)c3sccc32)c(OC)c1 | 0.835%
O=C(CSc1ccc(-c2ccccn2)nn1)N1CCCCC1 | 12.5%
COc1ccc(NC(=O)CSc2nc3ccccc3nc2N2CCCC2)cc1Cl | -27.4%
Cc1cc(C)nc(NCC(O)CNc2ccccc2Cl)n1 (centres unmarked) | 4.35%
O=C1CCC(C(=O)N2CCCC(Nc3ccc(F)cc3)C2)=NN1 (centres unmarked) | 1.7%
COc1ccc2nc(/C(C#N)=C\c3ccc(Oc4ccc([N+](=O)[O-])cn4)cc3)[nH]c2c1 | -10.6%
Cc1ccc(-c2nnn(CC(=O)NCCc3ccc4c(c3)OCO4)n2)o1 | 6.9%
Cc1ccccc1NC(=S)NC1CCN(Cc2ccccc2)CC1 | -12.3%
O=C(NCCC(=O)N1CCN(c2ncccn2)CC1)c1ccccc1 | 11.6%
CC(=O)OCCCN1c2ccccc2Nc2nnc(-c3ccccc3)cc21 | -34.6%
COc1ccc(NC(=O)CC(=O)Nc2ccc(OC)cc2OC)c(OC)c1 | -2.45%
Cc1ccc(C(=O)NCC(=O)OCC(=O)Nc2cc(C)c(C)cc2[N+](=O)[O-])cc1 | 4.76%
CC1CC(C)CN(C(=O)CSCC(=O)Nc2nc(-c3cccs3)cs2)C1 (centres unmarked) | 8.83%
N/C(=N\OC(=O)Oc1ccccc1)c1cccc([N+](=O)[O-])c1 | 22.7%
Cc1ccsc1/C=C1/C(=O)NN(c2ccccc2)C1=O | -9.63%
COc1ccccc1NC(=O)CNC(=O)c1ccccc1C | 15.7%
Cc1ccccc1C1NS(=O)(=O)N=C1N (centres unmarked) | 23.3%
COc1ccc(NC(=O)c2ccco2)cc1NC(=O)c1ccc(C)cc1 | 3.81%

SMILES | hERG current change (%, negative = inhibition) at 10uM
CC(C)CC(=O)N=C1SC2CS(=O)(=O)CC2N1Cc1ccccc1Cl (centres unmarked) | 6.06%
CCCCCCCCN1[C@@H](CC(=O)OC)c2cc(C(F)(F)F)ccc2S1(=O)=O | 1.99%
Cc1cc(NC(=O)CN2CCOCC2)n(-c2nc3ccccc3s2)n1 | 10.6%
COc1ccc(CC(=O)c2ccc(OC)c(OC)c2C)cc1OC | -15.7%
CC1CCCCC1NC(=O)CCNS(=O)(=O)c1ccc2c(c1)CCC(=O)N2 (centres unmarked) | 6.25%
O=C(COc1ccccc1)OCC(=O)c1c[nH]c2ccccc12 | -0.439%
Cc1ccc(-c2nc(CN3CCN(C(=O)C4CCCO4)CC3)cs2)cc1 (centres unmarked) | -1.49%
Cc1ccc(N=C2CSC(=O)N2)cc1 | 20.9%
CC12CCC(C(=O)NCCCn3ccnc3)(OC1=O)C2(C)C (centres unmarked) | 12.7%
COc1ccc(S(=O)(=O)N(CC(=O)NCCCN(C)C)c2ccc(C)cc2)cc1OC | -56.6%
O=C(c1cn[nH]c1)N1CCc2c([nH]c3ccccc23)C1c1c(F)cccc1Cl (centres unmarked) | -6.01%
COc1ccc(NC(=O)c2cc3c(Cl)nc4ccccc4c3s2)c(OC)c1 | -1.31%
CCOC(=O)C(=CNc1ccc2c(c1)c1ccccc1n2CC)C(=O)OCC | 20.5%
Cc1ccccc1-c1nc(CN2CCC(C(=O)NCCCN3CCOCC3)CC2)c(C)o1 | -10.8%
O=C(O)c1ccc(-c2sc(Nc3ccccc3)n[n+]2-c2ccccc2)cc1.[Cl-] | 6.22%
O=C(COc1ccc(C(=O)NCCN2CCOCC2)cc1)Nc1cccc(C(F)(F)F)c1 | -14.7%
O=C(CSCc1cc(=O)n2nc(C3CC3)sc2n1)Nc1ccccc1Cl | 3.48%
O=C(NCc1ccco1)C1CCCN(S(=O)(=O)c2ccccc2)C1 (centres unmarked) | -1.99%
O=C(Oc1ccc(C(=S)N2CCOCC2)cc1Cl)c1ccccc1F | 7.84%
Cc1ccc(OCCn2cc(C(=O)O)c3ccccc32)cc1 | -2.89%
O=C(O)c1c[nH]c(=S)n1-c1ccc(F)cc1 | 30.5%
CC(C)CNC(=O)CN(C1CCCCC1)S(C)(=O)=O | -24%
c1ccc(-c2ccc(-c3nc(-c4ccccn4)no3)cc2)cc1 | 12.6%

SMILES | hERG current change (%, negative = inhibition) at 10uM
COc1ccc(Cl)cc1NC(=O)CN1CCN(S(=O)(=O)N2CCC(C)CC2)CC1 | -32.1%
O=C(COC(=O)CNS(=O)(=O)c1cccc(Br)c1)NC(=O)Nc1ccc2c(c1)OCCO2 | 36.9%
COc1cccc(C(=O)N(Cc2ccc3c(c2)OCO3)Cc2nc3ccccc3c(=O)[nH]2)c1 | -10.8%
COc1ccc(C)cc1NC(=O)c1ccc(NC(=O)CC2SC(N3CCCC3)=NC2=O)cc1 (centres unmarked) | 18.2%
Cc1ccc(OC(F)F)c(NC(=O)Nc2cccc(C(F)(F)F)c2)c1 | 1.77%
Cn1cc(CCNC(=O)CC2C(=O)NCCN2Cc2cccc(Oc3ccccc3)c2)cn1 (centres unmarked) | 6.49%
CCOc1ccc(C)cc1S(=O)(=O)n1ccc(C)n1 | 4.82%
COc1cccc(/C=N/Nc2nc3ccccc3n3cnnc23)c1O | -6.87%
CC1CCN(CCCNC(=O)c2cc3c(=O)n(C)c4ccccc4c3n2C)CC1 | -14.9%
CCOc1ccc2[nH]c(C)c(CN(C)C)c(=O)c2c1 | 38.9%
CC(C)C(NC(=O)c1ccc(C(C)(C)C)cc1)C(=O)NCCc1ccccn1 (centres unmarked) | -6.22%
Cc1ccc(CNC(=O)[C@H](C)NC(=O)C2CCN(C(=O)[C@@H]3CCCN3C(=O)OC(C)(C)C)CC2)cc1 | 4.79%
COc1ccc(-c2[nH]ncc2CNC(C)Cc2ccsc2)c(F)c1 (centres unmarked) | -36.1%
COC(=O)C1=C(NC(=O)c2cccc(OC)c2)CCS1 | 12.4%
CCN1C(=O)CC(NCc2ccc3c(c2)OCO3)C1=O (centres unmarked) | -9.23%
CCOC(=O)N1CCC(NC(=O)c2cc3c(-c4ccc(Cl)cc4)nn(C)c3s2)CC1 | 4.16%
C=CCN(C(=O)c1csnn1)C(C(=O)NC1CCCCC1)c1ccc(Cl)cc1 (centres unmarked) | 8.7%
COC(=O)c1ccc(-c2nc3ccc(C)cc3o2)cc1 | 1.55%
CN(C)/C=C/C(=O)c1cnc2n(c1=O)CCS2 | 7.45%
COc1cccc(CNC(=O)CCNC(=O)c2ccc(Br)o2)c1 | 11.2%
S=C(c1cn(Cc2ccc(Br)cc2)c2ccccc12)N1CCOCC1 | -16.2%
CCC(C)n1c(O)c(C=Nc2cccc(C(F)(F)F)c2)c(=O)[nH]c1=S (centres unmarked) | 0.516%
Cc1c(Cl)c([N+](=O)[O-])nn1CC(=O)N1CCN(Cc2ccccc2)CC1 | -71%

SMILES | hERG current change (%, negative = inhibition) at 10uM
Cc1ccc(N/C(CSC(N)=O)=N/S(=O)(=O)c2ccccc2)cc1 | -12.5%
N#C/C(=C(/O)CN1CCN(c2ccccc2F)CC1)c1nc(-c2ccccc2)cs1 | 21.1%
N#Cc1c(NC(=O)Cn2nc(C(F)(F)F)c3c2CCCC3)sc2c1CCC2 | 15.4%
CC(C)c1ccc(NC(=O)NC2CCCCC2)cc1 | 10.8%
N#Cc1nc(-c2cccs2)oc1NCc1ccccc1Cl | 14.4%
CCOC(=O)/C=C1\SCC(=O)N1CC(=O)c1ccc[nH]1 | 8.08%
C=CCn1c(O)c(C(C)=Nc2ccc(N(CC)CC)cc2)c(=O)[nH]c1=O | -26.9%
O=S(=O)(NN1CCOCC1)c1ccc(Br)cc1 | 2.75%
CSc1nnc(C)c(=O)[nH]1 | 5.11%
CC(=O)NC(CC(=O)OCC(=O)c1c(N)n(C)c(=O)n(C)c1=O)c1ccccc1 (centres unmarked) | 10.6%
CCCC(C(=O)NC1CCCC1)N(CC1CCCO1)C(=O)CNS(=O)(=O)c1ccccc1 (centres unmarked) | 1.1%
CCOC(=O)CSc1nc(NCc2ccco2)c2ccccc2n1 | -56.1%
C=CCN(CC=C)Cc1c[nH]c2ccccc12 | 0.037%
Nc1nnc(CCS(=O)(=O)c2cc(Cl)ccc2Cl)s1 | -13.7%
CCN(CC)C(=O)Cn1cc(S(=O)(=O)CC(=O)NCc2ccc3c(c2)OCO3)c2ccccc21 | -9.63%
CCc1cccc2c(C=C(C#N)C#N)cn(CC(=O)N3CCCC3)c12 | -5.76%
CC(C)[C@H](NC(=O)[C@@H]1Cc2ccccc2CN1)C(=O)NC1CCCCC1 | -43.4%
C=CCNc1nc(N2CCOCC2)nc(N2CCOCC2)n1 | -9.33%
Cn1cc(-c2nnnn2-c2ccc(Cl)cc2)c(C(F)(F)F)n1 | -4.49%
CC1CCC(NCCc2ccc3c(c2)OCO3)CC1.O=C(O)C(=O)O (centres unmarked) | -21.3%

Reference: article PMC4336329 (PLoS ONE, 2015)
